{
  "source": "paper PMC11995724",
  "about": "“Antibiotic target discovery by integrated phenotypic and activity-based profiling of electrophilic fragments” (Cell chemical biology, 2025)",
  "note": "The campaign covered roughly 3,200 compounds. About 75 (2%) showed an effect of 50% or more. The list shows a part of the results.",
  "data": [
    {"tested_on": "T1, S. aureus MSSA476", "T1 construct": "MSSA476", "set-up": "species or system S. aureus MSSA476 (TSB) or V. cholerae SAD30 (LB); 384-well bacterial growth screen at 25 uM, OD600 relative to DMSO control", "conditions": "relative growth, OD600, TSB; 25 µM; inhibitor", "units": {"% of control remaining": "%"}, "values": [
      {"smiles": "C=CC(=O)NCCCc1conc1C", "note": "[2-N13, N-[3-(3-methyl-1,2-oxazol-4-yl)propyl]prop-2-enamide]", "% of control remaining": 106.179},
      {"smiles": "CC1=C(c2ccco2)CN(C(=O)C(C)Cl)CC1", "note": "(stereo not shown) [6-D15, 2-chloro-1-[5-(furan-2-yl)-4-methyl-1,2,3,6-tetrahydropyridin-1-yl]propan-1-one]", "% of control remaining": 87.4146},
      {"smiles": "C=CC(=O)NCc1cccc(C(C)(F)F)c1", "note": "[3-O22, N-{[3-(1,1-difluoroethyl)phenyl]methyl}prop-2-enamide]", "% of control remaining": 99.6082},
      {"smiles": "NC(=O)CSc1ccccc1NC(=O)CCl", "note": "[4-A15, 2-{[2-(2-chloroacetamido)phenyl]sulfanyl}acetamide]", "% of control remaining": 128.442},
      {"smiles": "Cc1ccc(-n2c(C)cc(C=C(C#N)C(=O)N3CCCCC3)c2C)cc1", "note": "[9-O21, 3-[2,5-dimethyl-1-(4-methylphenyl)-1H-pyrrol-3-yl]-2-(piperidine-1-carbonyl)prop-2-enenitrile]", "% of control remaining": 96.779},
      {"smiles": "O=C(CCl)NCCc1ccn(C2CCCC2)n1", "note": "[7-L20, 2-chloro-N-[2-(1-cyclopentyl-1H-pyrazol-3-yl)ethyl]acetamide]", "% of control remaining": 86.9702},
      {"smiles": "C=CC(=O)N1CCN(C(C)c2nc(C)no2)CC1", "note": "(stereo not shown) [3-M11, 1-{4-[1-(3-methyl-1,2,4-oxadiazol-5-yl)ethyl]piperazin-1-yl}prop-2-en-1-one]", "% of control remaining": 105.877},
      {"smiles": "N#CC(=Cc1ccc([N+](=O)[O-])cc1)C(=O)Nc1cccc2ncccc12", "note": "[9-K21, 2-cyano-3-(4-nitrophenyl)-N-(quinolin-5-yl)prop-2-enamide]", "% of control remaining": 92.8839},
      {"smiles": "CN(C(=O)CCl)C(c1ccccc1)c1ccccc1", "note": "[5-H06, 2-chloro-N-(diphenylmethyl)-N-methylacetamide]", "% of control remaining": 85.6102},
      {"smiles": "CC(Cl)C(=O)Nc1ccccc1-c1ccccc1", "note": "(stereo not shown) [4-G14, N-{[1,1'-biphenyl]-2-yl}-2-chloropropanamide]", "% of control remaining": 133.016},
      {"smiles": "C=CC(=O)NCCc1cscn1", "note": "[2-G08, N-[2-(1,3-thiazol-4-yl)ethyl]prop-2-enamide]", "% of control remaining": 88.0766},
      {"smiles": "c1nc(N2CCSSCC2)c2c3c(sc2n1)CCCC3", "note": "[10-M22, 3-(1,2,5-dithiazepan-5-yl)-8-thia-4,6-diazatricyclo[7.4.0.0,2,7]trideca-1(9),2,4,6-tetraene]", "% of control remaining": 155.938},
      {"smiles": "CCN(CC)S(=O)(=O)c1ccc(Cl)c(NC(=O)C(C)Cl)c1", "note": "(stereo not shown) [6-C20, 2-chloro-N-[2-chloro-5-(diethylsulfamoyl)phenyl]propanamide]", "% of control remaining": 105.512},
      {"smiles": "CC(Cc1c[nH]c2cc(F)c(F)cc12)NC(=O)CCl", "note": "(stereo not shown) [5-I07, 2-chloro-N-[1-(5,6-difluoro-1H-indol-3-yl)propan-2-yl]acetamide]", "% of control remaining": 83.7887},
      {"smiles": "C=CC(=O)Nc1ccc(C(N)=O)cc1C", "note": "[1-P06, 3-methyl-4-(prop-2-enamido)benzamide]", "% of control remaining": 92.1319},
      {"smiles": "CC(Cl)C(=O)N1CCCCC1C1CCCN(C(=O)C(F)(F)F)C1", "note": "(stereo not shown) [6-F16, 2-chloro-1-[1'-(2,2,2-trifluoroacetyl)-[2,3'-bipiperidin]-1-yl]propan-1-one]", "% of control remaining": 96.2927},
      {"smiles": "O=C(CCl)C1CC12CCCCC2", "note": "(stereo not shown) [10-A19, 2-chloro-1-{spiro[2.5]octan-1-yl}ethan-1-one]", "% of control remaining": 138.75},
      {"smiles": "O=C(CCl)Nc1cc(S(=O)(=O)N2CCCCC2)ccc1Cl", "note": "[4-F09, 2-chloro-N-[2-chloro-5-(piperidine-1-sulfonyl)phenyl]acetamide]", "% of control remaining": 124.631},
      {"smiles": "Cc1ccc(C=C(C#N)C(=O)NCCc2ccccc2)o1", "note": "[8-H12, 2-cyano-3-(5-methylfuran-2-yl)-N-(2-phenylethyl)prop-2-enamide]", "% of control remaining": 99.2531},
      {"smiles": "O=C(CCl)N1CCN(C(=O)CC(F)(F)F)CC1", "note": "[5-A08, 1-[4-(2-chloroacetyl)piperazin-1-yl]-3,3,3-trifluoropropan-1-one]", "% of control remaining": 113.297},
      {"smiles": "Cc1ccc(F)c(N2CCC(NC(=O)CCl)CC2)c1", "note": "[5-M14, 2-chloro-N-[1-(2-fluoro-5-methylphenyl)piperidin-4-yl]acetamide]", "% of control remaining": 67.3953},
      {"smiles": "C=CC(=O)N1CCC(C(=O)NC(C)(C)CSC)CC1", "note": "[3-M14, N-[2-methyl-1-(methylsulfanyl)propan-2-yl]-1-(prop-2-enoyl)piperidine-4-carboxamide]", "% of control remaining": 90.9012},
      {"smiles": "C=CC(=O)NC1(c2ccccc2)CCOC1", "note": "(stereo not shown) [3-P04, N-(3-phenyloxolan-3-yl)prop-2-enamide]", "% of control remaining": 87.0701},
      {"smiles": "CCN(CC)S(=O)(=O)c1cc(NC(=O)CCl)ccc1C", "note": "[4-E09, 2-chloro-N-[3-(diethylsulfamoyl)-4-methylphenyl]acetamide]", "% of control remaining": 102.525},
      {"smiles": "CC1CSc2ccc(Cl)cc2N(C(=O)CCl)C1", "note": "(stereo not shown) [5-J05, 2-chloro-1-(7-chloro-3-methyl-2,3,4,5-tetrahydro-1,5-benzothiazepin-5-yl)ethan-1-one]", "% of control remaining": 95.4463},
      {"smiles": "CSc1nsc(NC(=O)CCl)n1", "note": "[4-C13, 2-chloro-N-[3-(methylsulfanyl)-1,2,4-thiadiazol-5-yl]acetamide]", "% of control remaining": 101},
      {"smiles": "CCN(Cc1ccc(C(F)(F)F)cc1)C(=O)CCl", "note": "[7-H20, 2-chloro-N-ethyl-N-{[4-(trifluoromethyl)phenyl]methyl}acetamide]", "% of control remaining": 141.915},
      {"smiles": "C=CC(=O)N1CCC(C(=O)NCc2cnn(-c3ccccc3)c2)CC1", "note": "[3-O14, N-[(1-phenyl-1H-pyrazol-4-yl)methyl]-1-(prop-2-enoyl)piperidine-4-carboxamide]", "% of control remaining": 81.8459},
      {"smiles": "COc1ccc(NC(=O)CCl)cc1S(=O)(=O)N1CCCCC1", "note": "[4-B08, 2-chloro-N-[4-methoxy-3-(piperidine-1-sulfonyl)phenyl]acetamide]", "% of control remaining": 103.287},
      {"smiles": "C=CC(=O)NC(Cn1ccccc1=O)c1ccccc1", "note": "(stereo not shown) [2-B21, N-[2-(2-oxo-1,2-dihydropyridin-1-yl)-1-phenylethyl]prop-2-enamide]", "% of control remaining": 144.822},
      {"smiles": "C=CC(=O)N1CCC(C(=O)N(C)C(C)Cc2ccc(C)cc2)CC1", "note": "(stereo not shown) [2-F14, N-methyl-N-[1-(4-methylphenyl)propan-2-yl]-1-(prop-2-enoyl)piperidine-4-carboxamide]", "% of control remaining": 119.06},
      {"smiles": "C=CC(=O)N1CCc2cc(C(N)=O)ccc21", "note": "[1-P03, 1-(prop-2-enoyl)-2,3-dihydro-1H-indole-5-carboxamide]", "% of control remaining": 97.0549},
      {"smiles": "Cc1cc(C(=O)C(C)Cl)c(C)n1-c1ccccc1", "note": "(stereo not shown) [10-A06, 2-chloro-1-(2,5-dimethyl-1-phenyl-1H-pyrrol-3-yl)propan-1-one]", "% of control remaining": 94.6875},
      {"smiles": "COc1ccc(NC(=O)C(C#N)=Cc2ccc(-c3ccccc3)cc2)cc1", "note": "[8-D11, 3-{[1,1'-biphenyl]-4-yl}-2-cyano-N-(4-methoxyphenyl)prop-2-enamide]", "% of control remaining": 96.2656},
      {"smiles": "O=C(CCl)NCCc1cnn(-c2ccccc2)c1", "note": "[6-G22, 2-chloro-N-[2-(1-phenyl-1H-pyrazol-4-yl)ethyl]acetamide]", "% of control remaining": 95.9512},
      {"smiles": "CC(C)(C)c1ccc(CC(=O)CCl)cc1", "note": "[10-G19, 1-(4-tert-butylphenyl)-3-chloropropan-2-one]", "% of control remaining": 132.5},
      {"smiles": "CCOc1ccc(NC(=O)CCl)cc1S(=O)(=O)N1CCCC1", "note": "[4-J16, 2-chloro-N-[4-ethoxy-3-(pyrrolidine-1-sulfonyl)phenyl]acetamide]", "% of control remaining": 139.876},
      {"smiles": "CCS(=O)(=O)N1CCc2cc(C(=O)CCl)ccc21", "note": "[10-E18, 2-chloro-1-[1-(ethanesulfonyl)-2,3-dihydro-1H-indol-5-yl]ethan-1-one]", "% of control remaining": 0.3125},
      {"smiles": "C=CC(=O)N1CCC(C(=O)NC(C)CC2CC2)CC1", "note": "(stereo not shown) [3-M05, N-(1-cyclopropylpropan-2-yl)-1-(prop-2-enoyl)piperidine-4-carboxamide]", "% of control remaining": 90.5529},
      {"smiles": "N#CC(=Cc1ccc(-c2ccccc2)cc1)C(=O)N1CCCC1", "note": "[9-B08, 3-{[1,1'-biphenyl]-4-yl}-2-(pyrrolidine-1-carbonyl)prop-2-enenitrile]", "% of control remaining": 103.071},
      {"smiles": "N#CC(=Cc1cc(F)ccc1F)C(=O)Nc1ccc(Cl)cc1Cl", "note": "[8-O08, 2-cyano-N-(2,4-dichlorophenyl)-3-(2,5-difluorophenyl)prop-2-enamide]", "% of control remaining": 92.9461},
      {"smiles": "C=CC(=O)NCc1nonc1C", "note": "[2-H07, N-[(4-methyl-1,2,5-oxadiazol-3-yl)methyl]prop-2-enamide]", "% of control remaining": 108.268},
      {"smiles": "CC(Cl)C(=O)NCc1cnc(N2CCOCC2)s1", "note": "(stereo not shown) [6-P05, 2-chloro-N-{[2-(morpholin-4-yl)-1,3-thiazol-5-yl]methyl}propanamide]", "% of control remaining": 78.1951},
      {"smiles": "C=CC(=O)NCCC(=O)Nc1c(C)c(C)nn1C", "note": "[2-G12, N-{2-[(1,3,4-trimethyl-1H-pyrazol-5-yl)carbamoyl]ethyl}prop-2-enamide]", "% of control remaining": 103.394},
      {"smiles": "CC(Cl)C(=O)NC(C)C(=O)Nc1ccc(-n2cncn2)cc1", "note": "(stereo not shown) [7-P07, 2-chloro-N-(1-{[4-(1H-1,2,4-triazol-1-yl)phenyl]carbamoyl}ethyl)propanamide]", "% of control remaining": 75.6672},
      {"smiles": "Cc1ccc(NC(=O)C(C#N)=Cc2cccc([N+](=O)[O-])c2)cc1", "note": "[8-J17, 2-cyano-N-(4-methylphenyl)-3-(3-nitrophenyl)prop-2-enamide]", "% of control remaining": 95.9336}
    ]}
  ]
}
